{"source": "a collection of fitness landscapes (doi:10.1016/j.celrep.2020.107928)", "parents": {"B1": {"name": "Caulobacter ParB omega fusion; a variant is named by its letters at X, in order, B8GW30 (parent)", "chain": "MESVVVGEPGMSEGRRGLGRGLSALLGEVDAAPAQAPGEQLGGSREAPIEILQRNPDQPRRTFREEDLEDLSNSIREKGVLQPILVRPSPDTAGEYQIVAGERAWRAAQRAGLKTVPIMVRELDDLAVLEIGIIENVQRADLNVLEEALSYKVLMEKFERTQENIAQTIGKSXSHVANXMRLLXLPDEVQSYLVSGELTAXHARAIAAAADPVALAKQIIEGGLSVRETEALARKAPNLSAGKSKGGRPPRVKDTDTQALESDLSSVLGLDVSIDHRGSTGTLTITYATLEQLDDLCNRLTRGI"}}, "note": "In all, about 81,000 sequences were measured (“one-hybrid fitness for binding parS DNA”: median about -0.17, highest 2% from about 0.51 on). The list shows a part of the results."}
{"variants_of": "B1", "test": "one-hybrid fitness for binding parS DNA (scaled: cognate 1, non-cognate 0); higher = stronger binding", "details": "with parS DNA site", "how_it_was_run": "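Fitness here means the log change in variant-to-wild-type read ratio between plasmids sequenced before and after selection. That scale was set so cognate equals 1 and non-cognate equals 0. The selection was a bacterial one-hybrid screen of Caulobacter ParB libraries, four specificity codons randomised, in E. coli USO carrying a HIS3 reporter with the site 19 bp from the promoter, grown 48 hours at 37°C on M9-minus-histidine with 0.1 mM IPTG and 5 mM 3-AT.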"}
{"variant": "VPMV", "one-hybrid fitness for binding parS DNA": "≤ 0.2"}
{"variant": "LSYF", "one-hybrid fitness for binding parS DNA": "≤ 0.2"}
{"variant": "CRPP", "one-hybrid fitness for binding parS DNA": "≤ 0.2"}
{"variant": "QPIK", "one-hybrid fitness for binding parS DNA": "≤ 0.2"}
{"variant": "QGFL", "one-hybrid fitness for binding parS DNA": "≤ 0.2"}
{"variant": "RNTN", "one-hybrid fitness for binding parS DNA": 0.357}
{"variant": "HKPA", "one-hybrid fitness for binding parS DNA": "≤ 0.2"}
{"variant": "CGKE", "one-hybrid fitness for binding parS DNA": "≤ 0.2"}
{"variant": "SVKN", "one-hybrid fitness for binding parS DNA": "≤ 0.2"}
{"variant": "MRHP", "one-hybrid fitness for binding parS DNA": "≤ 0.2"}
{"variant": "FARV", "one-hybrid fitness for binding parS DNA": "≤ 0.2"}
{"variant": "RWLT", "one-hybrid fitness for binding parS DNA": 0.556}
{"variant": "TTLL", "one-hybrid fitness for binding parS DNA": "≤ 0.2"}
{"variant": "IGPR", "one-hybrid fitness for binding parS DNA": "≤ 0.2"}
{"variant": "HICD", "one-hybrid fitness for binding parS DNA": "≤ 0.2"}
{"variant": "QIVL", "one-hybrid fitness for binding parS DNA": "≤ 0.2"}
{"variant": "IKTQ", "one-hybrid fitness for binding parS DNA": "≤ 0.2"}
{"variant": "TEGW", "one-hybrid fitness for binding parS DNA": "≤ 0.2"}
{"variant": "IRMV", "one-hybrid fitness for binding parS DNA": "≤ 0.2"}
{"variant": "SLGR", "one-hybrid fitness for binding parS DNA": "≤ 0.2"}
{"variant": "SLKG", "one-hybrid fitness for binding parS DNA": "≤ 0.2"}
{"variant": "HPPT", "one-hybrid fitness for binding parS DNA": "≤ 0.2"}
{"variant": "KQHT", "one-hybrid fitness for binding parS DNA": "≤ 0.2"}
{"variant": "SCQS", "one-hybrid fitness for binding parS DNA": "≤ 0.2"}
{"variant": "IACS", "one-hybrid fitness for binding parS DNA": "≤ 0.2"}
{"variant": "SDRS", "one-hybrid fitness for binding parS DNA": "≤ 0.2"}
{"variant": "CCET", "one-hybrid fitness for binding parS DNA": "≤ 0.2"}
{"variant": "NGME", "one-hybrid fitness for binding parS DNA": "≤ 0.2"}
{"variant": "FPHL", "one-hybrid fitness for binding parS DNA": "≤ 0.2"}
{"variant": "KKLG", "one-hybrid fitness for binding parS DNA": "≤ 0.2"}
{"variant": "TQTE", "one-hybrid fitness for binding parS DNA": "≤ 0.2"}
{"variant": "IHKT", "one-hybrid fitness for binding parS DNA": "≤ 0.2"}
{"variant": "GRYW", "one-hybrid fitness for binding parS DNA": "≤ 0.2"}
{"variant": "RKWM", "one-hybrid fitness for binding parS DNA": 0.254}
{"variant": "HMHL", "one-hybrid fitness for binding parS DNA": "≤ 0.2"}
{"variant": "QCTH", "one-hybrid fitness for binding parS DNA": "≤ 0.2"}
{"variant": "ITLI", "one-hybrid fitness for binding parS DNA": "≤ 0.2"}
{"variant": "ISRA", "one-hybrid fitness for binding parS DNA": "≤ 0.2"}
{"variant": "LCME", "one-hybrid fitness for binding parS DNA": "≤ 0.2"}
{"variant": "KTMW", "one-hybrid fitness for binding parS DNA": "≤ 0.2"}
{"variant": "EETT", "one-hybrid fitness for binding parS DNA": "≤ 0.2"}
{"variant": "SALK", "one-hybrid fitness for binding parS DNA": "≤ 0.2"}
{"variant": "DSSA", "one-hybrid fitness for binding parS DNA": "≤ 0.2"}
{"variant": "IFQR", "one-hybrid fitness for binding parS DNA": "≤ 0.2"}
{"variant": "QYFY", "one-hybrid fitness for binding parS DNA": "≤ 0.2"}
{"variant": "IAGR", "one-hybrid fitness for binding parS DNA": "≤ 0.2"}
{"variant": "TALA", "one-hybrid fitness for binding parS DNA": "≤ 0.2"}
{"variant": "QLFQ", "one-hybrid fitness for binding parS DNA": "≤ 0.2"}
{"variant": "CSPC", "one-hybrid fitness for binding parS DNA": "≤ 0.2"}
{"variant": "PNKG", "one-hybrid fitness for binding parS DNA": "≤ 0.2"}
{"variant": "SEKR", "one-hybrid fitness for binding parS DNA": "≤ 0.2"}
{"variant": "FPAA", "one-hybrid fitness for binding parS DNA": "≤ 0.2"}
{"variant": "LWLL", "one-hybrid fitness for binding parS DNA": "≤ 0.2"}
{"variant": "YHMC", "one-hybrid fitness for binding parS DNA": "≤ 0.2"}
{"variant": "HETL", "one-hybrid fitness for binding parS DNA": "≤ 0.2"}
{"variant": "KVYR", "one-hybrid fitness for binding parS DNA": "≤ 0.2"}
{"variant": "AKTP", "one-hybrid fitness for binding parS DNA": "≤ 0.2"}
{"variant": "WTTI", "one-hybrid fitness for binding parS DNA": "≤ 0.2"}
{"variant": "THAL", "one-hybrid fitness for binding parS DNA": "≤ 0.2"}
{"variant": "GWKS", "one-hybrid fitness for binding parS DNA": "≤ 0.2"}
{"variant": "RPQK", "one-hybrid fitness for binding parS DNA": "≤ 0.2"}
{"variant": "LQIS", "one-hybrid fitness for binding parS DNA": "≤ 0.2"}
{"variant": "DKHR", "one-hybrid fitness for binding parS DNA": "≤ 0.2"}
{"variant": "VPDF", "one-hybrid fitness for binding parS DNA": "≤ 0.2"}
{"variant": "SLTF", "one-hybrid fitness for binding parS DNA": "≤ 0.2"}
{"variant": "RARM", "one-hybrid fitness for binding parS DNA": 0.343}
{"variant": "ADFD", "one-hybrid fitness for binding parS DNA": "≤ 0.2"}
{"variant": "RIPE", "one-hybrid fitness for binding parS DNA": "≤ 0.2"}
{"variant": "VVVT", "one-hybrid fitness for binding parS DNA": "≤ 0.2"}
{"variant": "GECG", "one-hybrid fitness for binding parS DNA": "≤ 0.2"}
{"variant": "QWSN", "one-hybrid fitness for binding parS DNA": "≤ 0.2"}
{"variant": "RTEA", "one-hybrid fitness for binding parS DNA": 0.58}
{"variant": "KTWN", "one-hybrid fitness for binding parS DNA": "≤ 0.2"}
{"variant": "WRWG", "one-hybrid fitness for binding parS DNA": "≤ 0.2"}
{"variant": "GNCS", "one-hybrid fitness for binding parS DNA": "≤ 0.2"}
{"variant": "TFHY", "one-hybrid fitness for binding parS DNA": "≤ 0.2"}
{"variant": "MATY", "one-hybrid fitness for binding parS DNA": "≤ 0.2"}
{"variant": "TAKN", "one-hybrid fitness for binding parS DNA": "≤ 0.2"}
{"variant": "RFSA", "one-hybrid fitness for binding parS DNA": 0.572}
{"variant": "RHNY", "one-hybrid fitness for binding parS DNA": 0.37}
{"variant": "GQQL", "one-hybrid fitness for binding parS DNA": "≤ 0.2"}
{"variant": "QFHG", "one-hybrid fitness for binding parS DNA": "≤ 0.2"}
{"variant": "TYCK", "one-hybrid fitness for binding parS DNA": "≤ 0.2"}
{"variant": "KGTE", "one-hybrid fitness for binding parS DNA": "≤ 0.2"}
